Results: PubChem BioAssay AID686971 (National Center for Advancing Translational Sciences (NCATS), 2013)
The whole screen tested about 360,000 compounds, of which about 7,500 (2.1%) were called active. The shares of active, inactive and inconclusive entries below differ from those in the screen. Calls follow the shape of the dose curve; as a rule, active = well fitted cell-killing curve with a large enough effect; inconclusive = small, poorly fitted or top-dose-only effect, or effect the other way, or another doubt; inactive = no such curve, though single readings can be large or run the other way. Potencies of inconclusive entries are left out as doubtful fits.

Assay: qHTS for induction of synthetic lethality in tumor cells producing 2HG: qHTS for the HT-1080-IDH1KD cell line;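 as to activity, negative = toxicity: 0% = DMSO wells and -100% = cell-free medium wells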
Conditions: HT-1080 IDH1 knockdown viability, ATP luminescence, 48 h; activity, negative = toxicity: at 46.1 µM (top of the series) unless noted
Method in brief: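 HT-1080-IDH1KD cells (IDH1 knocked down), 750/well in RPMI with 5% FBS, treated with compound 48 h at 37 degrees C. Viability by CellTiter-Glo luminescence, normalised to DMSO and no-cell wells; concentration-response curves classed.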
Potency is read from the fitted curve at half-maximal effect; tags tell the direction and shape of the fitted curve.

SMILES | Potency | activity, negative = toxicity
CN(C)CC/C=C1/c2cc(F)ccc2Sc2ccc(Cl)cc21 | active: 16.4 µM | –
Nc1nc(Cl)cc(N2CCC(c3cc(-c4ccc(Cl)cc4)n[nH]3)CC2)n1 | active: 11.2 µM | –
Cc1noc(/C=C/N(C)C)c1S(=O)(=O)N1CCN(c2ccccc2)CC1 | inconclusive [cytotoxic, single point] | –
Cc1c(Cl)cccc1NC(=S)NC1CCN(C(C)C)CC1 | inactive | –
C/C(=N\Nc1ncnc2sc(C)c(C)c12)c1ccccn1 | active: 0.517 µM | –
C[C@H](NC(=O)c1nc[nH]c1C(=O)NC(c1ccccc1)c1ccccc1)C(=O)OC(C)(C)C | inconclusive [cytotoxic, single point] | –
CCC(c1nnnn1C(C)(C)C)N1CCN(C/C=C/c2ccccc2)CC1 (stereo unspecified) | inactive | –
CC(=O)c1cccc(-c2ccnc3c2CC(C(=O)Nc2cccc(OC(F)(F)F)c2)O3)c1 (stereo unspecified) | active: 16.4 µM | –
O=C(Nc1ccc(OCC(F)(F)C(F)F)c(C(F)(F)F)c1)c1ccccc1 | inconclusive [cytotoxic, single point] | –
COc1ccccc1NC(=O)C(C)OC(=O)CCNS(=O)(=O)c1ccc(C)c(C)c1 (stereo unspecified) | inactive | –
O=C(Nc1cccc(Cl)c1)N1CCN2C(=O)c3ccccc3C12c1ccccc1 (stereo unspecified) | inconclusive [cytotoxic, single point] | –
CC(C)(C)C1CCC(OCC(O)CN2CCN(c3ccccn3)CC2)CC1 (stereo unspecified) | inconclusive [cytotoxic, single point] | –
CCc1nc(SCC(=O)Nc2ccc(N(CC)CC)cc2)n[nH]1 | inactive | –
CCOc1ccccc1NC(=O)CCSc1nc2n[nH]c(C)c2c(=N)n1-c1ccccc1Cl | inconclusive [cytotoxic, single point] | –
Cc1c(C)n(Cc2ccccc2)c2ccc(C(=O)NCCCN3CCOCC3)cc12 | inconclusive [cytotoxic, single point] | –
C=CCC[C@H](Cc1ccc(F)cc1)C(=O)OC[C@H](Cc1c[nH]c2ccccc12)NC(=O)[C@H](CC=C)CC(=O)N(CCO)Cc1ccccc1 | inconclusive [cytotoxic, single point] | –
Cc1onc(-c2ccccc2Cl)c1C(=O)OCC(=O)Nc1cccc(S(=O)(=O)N2CCOCC2)c1 | inactive | –
FC(F)(F)c1cc(Cl)c2nc(-c3ccccc3)c(Cc3ccsc3)n2c1 | inactive | –
O=C(COc1ccc(F)c(Cl)c1)NC(=O)NC1CCCC1 | inactive | –
COc1cccc(-c2cnc3c(NC(C)=O)cc(-c4cc(OC)c(OC)c(OC)c4)cn23)c1 | inconclusive [cytotoxic, single point] | –
COc1cc2c(cc1NC(=O)Nc1ccc(C)cc1)oc1ccccc12 | inconclusive [cytotoxic, single point] | –
CCN(CC)c1ccc(NC(=O)Nc2cccc3ccccc23)cc1 | inconclusive [cytotoxic, single point] | –
CCN(C(=O)c1cnc(N2CCN(c3ncccn3)CC2)c2ccccc12)c1cccc(Cl)c1 | inconclusive [cytotoxic, partial curve] | –
CCc1ccc(CN(C)C(=O)c2cc(COc3cc(C)c(Cl)c(C)c3)on2)nc1 | inconclusive [cytotoxic, single point] | –

SMILES | Potency | activity, negative = toxicity
COc1ccc(C2CC(c3ccc(OC)cc3)n3nc(NC(=O)c4cccs4)nc3N2)cc1 (stereo unspecified) | inconclusive [cytotoxic, single point] | –
O=C(NCCCSc1ccccc1)c1cc(Br)ccc1O | active: 18.4 µM | –
O=C(CSc1nc(-c2cccs2)cc(C(F)(F)F)n1)NCc1ccccc1 | inconclusive [cytotoxic, single point] | –
CCOC(=O)C1=C(N)Oc2ccc3ccccc3c2C1c1cccc(O)c1 (stereo unspecified) | inactive | –
COc1ccc(CNC(=O)COc2ccc(C(=O)c3ccc(F)cc3)cc2)cc1 | active: 5.17 µM | –
CCN(CC)C(=O)c1cccc(-c2csc(C(C)(O)c3ccncc3)n2)c1 (stereo unspecified) | inconclusive [cytotoxic, single point] | –
Cc1sc2ncnc(N/N=C/c3cccc(O)c3)c2c1C | inconclusive [cytotoxic, single point] | –
O=C(NCCN1C(=O)S/C(=C\c2ccc(OC(F)F)cc2)C1=O)C1=COCCO1 | inconclusive [cytotoxic, single point] | –
Cc1ccccc1OCc1nc2ccccc2c(=O)n1/N=C/c1c[nH]c2ccccc12 | inconclusive [cytotoxic, partial curve] | –
COc1ccc(C2CCc3cc4c(cc3C2=NOC(C)=O)OCO4)cc1OC (stereo unspecified) | inconclusive [cytotoxic, single point] | –
O=C1C2C3C=CC(C3=C3CCCCC3)C2C(=O)N1Cc1ccccc1 (stereo unspecified) | inconclusive [cytotoxic, single point] | –
CC(C)OC(=O)c1cc(NC(=S)Nc2ccc([N+](=O)[O-])cc2)cc(C(=O)OC(C)C)c1 | active: 20.6 µM | –
Cc1cccc(NC(=S)NC2CC3CCCC(C2)N3Cc2cccs2)c1C (stereo unspecified) | inconclusive [cytotoxic, partial curve] | –
O=C(Oc1ccc(-c2nnco2)cc1)c1ccc(Br)o1 | inactive | –
Cc1nn2c(NCCCn3ccnc3)cc(C(C)C)nc2c1-c1ccccc1 | inconclusive [cytotoxic, single point] | –
CCOC(=O)c1nc2cc3n(c(CC(C)C)c-2c1C)CC(C)=C3C | inactive | –
Cc1[nH]nc(-c2ccc(OCc3cnn(-c4ccccc4)c3)cc2O)c1Oc1ccccc1F | inconclusive [cytotoxic, single point] | –
Clc1ccc(C[n+]2cc(-c3ccccc3)n3c2CCCCC3)c(Cl)c1 | active: 16.4 µM | –
Cc1ccc(CN(Cc2ccccn2)C(=O)Nc2ccc(C)c(C)c2)cc1 | inconclusive [cytotoxic, partial curve] | –
NNC(=O)c1sc(-c2ccc(Cl)cc2)cc1N | – | inconclusive: -30.1% [cytotoxic]
CC(=O)Nc1ccc(S[C@@H](CCN2CC[C@H](C(C)(C)C)CCC2=O)c2ccccc2)cc1 | inconclusive [cytotoxic, single point] | –
COc1cc(/C=N/Nc2nc(C)nc3c2cnn3-c2ccccc2)ccc1O | inconclusive [cytotoxic, full curve] | –
COc1ccccc1N1CC(C(=O)OC(C)C(=O)Nc2ccc(F)cc2)CC1=O (stereo unspecified) | inactive | –
COc1ccc2[nH]c(C)c(C(=O)CN(C)C)c2c1 | – | inconclusive: -7.29%

SMILES | Potency | activity, negative = toxicity
O=C(COC(=O)Cc1c[nH]c2ccccc12)Nc1cccc(Br)c1 | inactive | –
Cc1ccc(CNn2cnnc2SCc2ccc(F)cc2)cc1 | inconclusive [cytotoxic, single point] | –
COC(=O)c1c(C(=O)OC)n(CCCN)c2ccc(C)cc12 | inconclusive [cytotoxic, single point] | –
COCCN1C(=O)N(c2ccc(OC)cc2)C(=O)C1CC(=O)Nc1cccc(F)c1 (stereo unspecified) | inactive | –
O=C(Cc1cccs1)Nc1nc(-c2ccc(F)cc2F)cs1 | inconclusive [cytotoxic, single point] | –
CCOC(=O)C1=CC[C@@H](c2ccncc2)N(S(=O)(=O)c2ccc(C)cc2)C1 | inconclusive [cytotoxic, single point] | –
CN(Cc1ccccc1)C(=O)c1[nH]cnc1C(=O)N[C@@H](CCCCNC(=O)OC(C)(C)C)C(=O)OC(C)(C)C | inactive | –
CCCn1c(=N)n(CC(O)COc2cccc(C)c2)c2ccccc21 (stereo unspecified) | inconclusive [cytotoxic, partial curve] | –
CCCCc1c(-c2ccccc2OC)ncn1C1CCCC1 | inconclusive [cytotoxic, single point] | –
O=C(COC(=O)c1ccc[nH]c1=O)NC1CCCc2ccccc21 (stereo unspecified) | inactive | –
COc1ccc(-n2nnnc2-c2cccc(OC)c2)cc1 | active: 1.64 µM | –
O=C(Cn1cnc2c(cnn2-c2ccccc2)c1=O)NCc1ccccc1 | inconclusive [cytotoxic, partial curve] | –
Cc1ccc(/C=N/NC(=O)c2n[nH]c3c2CCCC3)cc1 | active: 0.13 µM | –
CCOc1ccc2nc(NC(=O)CSc3nc4cccnc4n3C)sc2c1 | inconclusive [cytotoxic, single point] | –
COc1cc(-c2cc(NC=O)c3ncc(-c4cccc(C(=O)N(C)C)c4)n3c2)cc(OC)c1OC | inactive | –
Cc1ccc(-c2csc(N(CCc3ccccc3)C(=O)COc3ccccc3)n2)cc1 | inactive | –
O=C(N/N=C/C=C\c1ccccc1[N+](=O)[O-])c1cc(-c2ccccc2)nc2ccccc12 | inconclusive [cytotoxic, partial curve, poor fit] | –
CCN(CC)C1Oc2cc3c(cc2C(c2cc(OC)c(OC)c(OC)c2)C1C)OCO3 (stereo unspecified) | active: 1.46 µM | –
COc1ccccc1Cc1c(-c2ccc(OC)c(OC)c2)nc2ccc(C)cn12 | inconclusive [cytotoxic, single point] | –
O=C(NCCc1csc(-c2ccc(Cl)cc2)n1)c1ccco1 | inconclusive [cytotoxic, single point] | –
CC(=O)N1c2ccc(S(=O)(=O)NCC3CCC(C(=O)Nc4cc(C)ccn4)CC3)cc2CC1C (stereo unspecified) | inconclusive [cytotoxic, single point] | –
CCC(=O)Nc1nnc(SCc2ccccc2F)s1 | inactive | –
O=C(/C=C/c1ccccc1)NC(=S)NNC(=O)Cc1cccs1 | inconclusive [cytotoxic, single point] | –
